Test results published in US12599649B2, “Bioactive polypeptides for improvements in plant protection, growth and productivity” (priority 2017, dated 2026).

Key:
Assay type in all cases: in vivo
tomato = experiment: Foliar treatment of tomato, yield (Examples 11, 12, 25); settings: for average increase in tomato yield over control: 1 Fl. oz/Ac
Method: Small scale plots were designed to simulate commercial growing conditions for tomatoes. Two hybrids of tomatoes, JetSetter (Trial 1) and Better Big Boy (Trial 2) were started as transplants in the greenhouse 42 to 56 days prior to planting in the raised field beds. Tomatoes were transplanted once soil temperatures three inches (7.6 cm) beneath the soil surface reach 60° F. (15.5° C.). Tomatoes were grown on raised beds covered with black plastic mulch. Plants were grown using drip irrigation and fertilizer applied following grower guidelines throughout the growing season to ensure optimum plant growth and yields. Small raised bed plots were designed to simulate the planting densities used by commercial growers that generally plant 2,600 to 5,800 plants per acre in single rows with 18 to 30 inches (46 to 76 cm) between plants in the row on 5- to 6.5-ft (1.5 to 2 m) centers.
Foliar treatments of Bt.4Q7 Flg22 and Ec. […] Replicated trials were conducted at the University of Missouri (Columbia, MO) in July. Control plants were treated with equal volumes (use rates) of water. Effects of the foliar treatments on increasing yield in tomatoes were determined and reported as normalized to the water control treatment.
In another experiment, tomato plants (hybrid: Better Boy), cultivated as described in the previous example, were treated with a formulation of Bt.4Q7 Flg22 at the first bloom stage. The formulation used consisted of the retro inverso D RI Bt.4Q7 Flg22 applied with 0.01% (v/v) non-ionic surfactant. […] At harvest, the yield was measured as the number of fruits per plant, the weight (grams) per fruit and the total yield (lbs/Ac). Table 29 reports the yield as a percent comparison or change to the non-treated control (water only) plants.
Foliar application treatments of Gm.RHPP (SEQ ID NO: 600) was applied as an exogenous spray at the pre-bloom stage and used to increase yield in tomatoes. Two tomato hybrids (JetSetter and Better Big Boy) were planted in small scale plots as described in Example 12. […] Replicated trials were conducted at the US Midwest (Missouri) in July. The foliar treatment of Gm.RHPP on tomato plants was compared to the control (water applied at same use rate). Effects of the foliar treatments on increasing yield in tomatoes were determined and reported as normalized to the water control treatment and reported as the average percentage change in yield over the average control yield in Table 41.

corn = experiment: RHPP on V5-V8 corn, leaf architecture (Example 22)
Source text: Retro inverso RHPP may be modified with C-terminal amidation prior to application. […] The increase in leaf angle has impactful advantages for use in agriculture in this area. This is particularly relevant with higher planting densities used to maximize yield in a field environment. Foliar applications of the RHPP polypeptide in maize (corn) is useful for changing the leaf angle thus contributing to a smaller leaf angle which results in an upright leaf orientation. This phenotype can be beneficial for increasing the leaf area index, reducing maize shade syndrome, and improving photosynthetic efficiency. In addition, providing RHPP as a foliar formulation to maximize canopy development and total light penetrance is key to increasing vegetative growth of the plants prior to the initiation of the grain filling stage.

soybean [1] = experiment: Foliar RHPP on soybean, nodulation and biomass (Example 23)
Method: Effective nodulation of soybean roots result in higher yields and higher quality seed production, protein and oil per seed or acre basis. This could be due to increased nitrogen fixation since nodulale formation increases nitrogen fixation. To determine whether root hair promoting bioactive priming polypeptide, RHPP (SEQ ID NO: 600) could modulate root biomass and nodulation and thereby improve nitrogen fixation, soybean plants (hybrid Morsoy 38×52 and Beck's hybrid 297R4) were treated with foliar application of RHPP (300 nM) at the R1-R2 stage of development.
RHPP bioactive priming polypeptide (SEQ ID NO: 600, originally derived from Glycine max) was applied as foliar treatment to 4-week-old hybrid soybean (Morsoy variety) with 0.1% (v/v) non-ionic surfactant ([…] SURFACE™) using a spray bottle and delivering approximately 1.25 ml/plant. The experiment was conducted using a total of 8 plants per trial per treatment group. […] Growth parameters of nodule counts, root biomass and total biomass per plant were measured at 15 days post the foliar application and compared between the foliar treatments consisting of […] SURFACE surfactant (0.1% v/v) as a control and the RHPP polypeptide (300 nM) containing the […] SURFACE surfactant (0.1% v/v). Average growth parameters as described were normalized to the control plants that received the surfactant alone treatment (Table 38).

soybean [2] = experiment: Soybean seed treatment with Flg22 polypeptides and RHPP, yield (Example 10); settings: 12 locations
Source text: A third study was set up to look at soybean seed treatment benefits of Bt.4Q7 Flg22, RI Bt.4Q7Flg22, Ec.RI Flg22, and RHPP as a seed treatment on soybean.

soybean [3] = experiment: Bt.4Q7Flg22 or Ec.Flg22 with RHPP on soybean, yield (Example 28)
Source text: The bioactive priming polypeptides, Bt.4Q7Flg22 and Ec.Flg22, were combined with RHPP and accessed for yield benefits in soybean.
Average yield (harvested in September) in bushels per acre (Bu/Ac) is reported for soybean grown in 7 separate locations and reported individually for both soybean varieties and as a combined average yield (Table 45).

Cercospora kikuchii = experiment: Cercospora leaf blight severity on soybean, Paraguay field trials (Example 53); settings: 150 and 300 mL/Ha, two foliar applications from R1
[4] = tomato, foliar 1 Fl. oz/Ac at early bloom, vs water control
[5] = 300 nM foliar, 15 days post application
[6] = soybean Morsoy, 300 nM + 0.1% v/v ALLIGARE SURFACE, 15 days post foliar application
[7] = soybean Morsoy, 300 nM, 15 days post foliar application
[8] = both soybean varieties, use rate 0.33 Fl. oz/Ac

Q: Which results are given for “RHPP: root hair promoting polypeptide derived from Glycine max (GGIRAAPTGNER; Glycine max)”?
A: average increase in tomato yield over control (tomato; Better Big Boy hybrid): 10%; average increase in tomato yield over control (tomato; Jetsetter hybrid): 93%; average increase in tomato yield over control (tomato; average of hybrids JetSetter and Better Big Boy): 52%; Average Trials 1 & 2 Percent Change Yield over Avg. Control (tomato; tomato, both hybrids, foliar 1 Fl. oz/Ac, vs water control): +52%; Trial 1: Percent Change in Yield over Avg. Control; Hybrid: Jetsetter (tomato; [4]): +93%; Trial 2: Percent Change in Yield over Avg. Control; Hybrid: Better Big Boy (tomato; [4]): +10%; leaf architecture phenotype (corn): distinct leaf architecture phenotype with an upright leaf orientation and more erect leaves; increase in root biomass normalized to control (soybean [1]; [5]): more than 20%; increase in total biomass normalized to control (soybean [1]; [5]): 8%; number of nodules on roots vs surfactant control (soybean [1]; [5]): approximately two times the number of nodules; Average nodule count per plant (soybean [1]; [6]): 15.13; Root biomass (soybean [1]; [6]): 2.13 g; Total biomass (soybean [1]; [6]): 46.24 g; Average nodule count per plant, RHPP treatment normalized as a percentage of the surfactant control (soybean [1]; [7]): 170.42%; Root biomass, RHPP treatment normalized as a percentage of the surfactant control (soybean [1]; [7]): 120.57%; Total biomass, RHPP treatment normalized as a percentage of the surfactant control (soybean [1]; [7]): 108.44%; win rate (soybean [2]): 64%; yield advantage (soybean [2]): 0.4 Bu/Ac; Average Bu/Ac Increase compared to Control Variety 1 and 2 (soybean [3]; [8]): +0.35 Bu/Ac; Average Total Yield Bu/Ac Variety 1 and 2 (soybean [3]; [8]): 60.92 Bu/Ac; yield increase over control plants (soybean [3]; foliar 4.0 Fl. oz/Ac, R2, 7 locations): 1.26 Bu/Ac; Average Total Yield Bu/Ac Variety 1 (soybean [3]; soybean variety 1 (AG2836), foliar at R2, 7 locations, use rate 0.33 Fl. oz/Ac): 59.15 Bu/Ac; Average Total Yield Bu/Ac Variety 2 (soybean [3]; soybean variety 2 (AG3536), foliar at R2, 7 locations, use rate 0.33 Fl. oz/Ac): 62.44 Bu/Ac; less Cercospora leaf area damage compared to untreated control (Cercospora kikuchii): 3.3-4.5%
